Our source for the MIC values is the supplement of paper PMC10928670.

MIC of N. gonorrhoeae strains collected 1971-2005, agar dilution (CLSI M07); ranges 0.03-64 mg/L (penicillin, azithromycin), 0.015-1 (cefixime, ceftriaxone), 0.5-256 (spectinomycin); higher = less susceptible. No active / inactive call per row; the paper counts cefixime and ceftriaxone above 0.25 and azithromycin above 1 mg/L as non-susceptible. The source says 'penicillin'; penicillin G is assumed. Isolates are numbered anew. Some results are limits rather than exact numbers.

What all share (test): Agar dilution by CLSI M07.
Compound in one test: CO/N=C(\C(=O)N[C@@H]1C(=O)N2C(C(=O)O)=C(CSc3nc(=O)c(O)nn3C)CS[C@H]12)c1csc(N)n1 [ceftriaxone]
Compound in another test: CN[C@@H]1[C@H](O)[C@H](NC)[C@H]2O[C@@]3(O)C(=O)C[C@@H](C)O[C@H]3O[C@@H]2[C@H]1O [spectinomycin]
Compound in the next test: C=CC1=C(C(=O)O)N2C(=O)[C@@H](NC(=O)/C(=N\OCC(=O)O)c3csc(N)n3)[C@H]2SC1 [cefixime]
Compound in another test: CC1(C)S[C@@H]2[C@H](NC(=O)Cc3ccccc3)C(=O)N2[C@H]1C(=O)O [penicillin G]
Compound in a further test: CC[C@H]1OC(=O)[C@H](C)[C@@H](O[C@H]2C[C@@](C)(OC)[C@@H](O)[C@H](C)O2)[C@H](C)[C@@H](O[C@@H]2O[C@H](C)C[C@H](N(C)C)[C@H]2O)[C@](C)(O)C[C@@H](C)CN(C)[C@H](C)[C@@H](O)[C@]1(C)O [azithromycin]

On to “Neisseria gonorrhoeae isolate 158 (GyrA: Wild type, ParC: Wild type, mtrR: -35A Del, A39T, penA: Type IV NonMosaic, A517G, G543S, ponA: L421P, porB: G120K, A121D)”, for which the MIC (usually the lowest concentration found to suppress growth) in the test with ceftriaxone was 0.125 µg/mL; with spectinomycin, 16 µg/mL; with cefixime, 0.06 µg/mL; in the test with penicillin G, 4 µg/mL; with azithromycin, 0.125 µg/mL.

On to “Neisseria gonorrhoeae isolate 180 (GyrA: Wild type, ParC: Wild type, mtrR: Wild type, penA: WT NonMosaic, ponA: Wild type, porB: Wild type)”, for which the MIC was at most 0.015 µg/mL in the test with ceftriaxone; 32 µg/mL in the test with spectinomycin; at most 0.015 µg/mL with cefixime; at most 0.03 µg/mL with penicillin G; 0.06 µg/mL in the test with azithromycin.

As to “Neisseria gonorrhoeae isolate 125 (GyrA: Wild type, ParC: Wild type, mtrR: -35A Del, A39T, penA: Type IV NonMosaic, A517G, G543S, ponA: L421P, porB: G120D)”, the MIC in the test with ceftriaxone came to 0.03 µg/mL; with spectinomycin, 16 µg/mL; with cefixime, 0.03 µg/mL; in the test with penicillin G, 1 µg/mL; with azithromycin it was 0.25 µg/mL.

With “Neisseria gonorrhoeae isolate 167 (GyrA: Wild type, ParC: Wild type, mtrR: G45D, penA: Type XXII NonMosaic, A517G, ponA: Wild type, porB: Wild type)”, the minimal inhibitory concentration (MIC) with ceftriaxone was at most 0.015 µg/mL; with spectinomycin, 8 µg/mL; in the test with cefixime, at most 0.015 µg/mL; in the test with penicillin G it was 2 µg/mL; in the test with azithromycin it was 0.06 µg/mL.

Turning to “Neisseria gonorrhoeae isolate 39 (GyrA: S91F, D95G, ParC: Wild type, mtrR: -35A Del, penA: Type V Nonmosaic, A517G, G543S, ponA: L421P, porB: Wild type)”, the MIC is at most 0.015 µg/mL in the test with ceftriaxone; 32 µg/mL with spectinomycin; at most 0.015 µg/mL with cefixime; 1 µg/mL with penicillin G; 0.25 µg/mL with azithromycin.

Regarding “Neisseria gonorrhoeae isolate 190 (GyrA: Wild type, ParC: Wild type, mtrR: -35A Del, G45D, penA: Type 46 NonMosaic, A517G, ponA: L421P, porB: G120D)”, the MIC with ceftriaxone was at most 0.015 µg/mL; with spectinomycin, 8 µg/mL; with cefixime, at most 0.015 µg/mL; with penicillin G it was 1 µg/mL; with azithromycin, 0.125 µg/mL.

On to “Neisseria gonorrhoeae isolate 103 (GyrA: D95G, ParC: Wild type, mtrR: -35A Del, penA: Type XII NonMosaic, A517G, ponA: L421P, porB: G120K, A121N)”, for which the MIC in the test with ceftriaxone worked out at 0.06 µg/mL; with spectinomycin, 32 µg/mL; in the test with cefixime, 0.06 µg/mL; with penicillin G, 2 µg/mL; with azithromycin it was 1 µg/mL.

On to “Neisseria gonorrhoeae isolate 33 (GyrA: S91F, D95G, ParC: Wild type, mtrR: -35A Del, penA: Type XIII NonMosaic, A501V, A517G, ponA: L421P, porB: G120K, A121D)”, for which the MIC in the test with ceftriaxone amounted to 0.25 µg/mL; in the test with spectinomycin, 64 µg/mL; in the test with cefixime it was 0.25 µg/mL; with penicillin G, 2 µg/mL; with azithromycin, 0.125 µg/mL.

“Neisseria gonorrhoeae isolate 72 (GyrA: S91F, D95G, ParC: Wild type, mtrR: -35A Del, penA: Type V NonMosaic, A517G, G543S, ponA: L421P, porB: G120K, A121D)”: the MIC with ceftriaxone was 0.03 µg/mL; with spectinomycin, 16 µg/mL; with cefixime it was 0.03 µg/mL; in the test with penicillin G, 2 µg/mL; in the test with azithromycin, 0.25 µg/mL.

As for “Neisseria gonorrhoeae isolate 80 (GyrA: Wild type, ParC: Wild type, mtrR: -35A Del, penA: Type IX NonMosaic, A517G, ponA: L421P, porB: G120K, A121D)”, the minimal inhibitory concentration (MIC) in the test with ceftriaxone stood at 0.03 µg/mL; with spectinomycin it was 16 µg/mL; in the test with cefixime, 0.03 µg/mL; with penicillin G it was 4 µg/mL; with azithromycin, 1 µg/mL.

For “Neisseria gonorrhoeae isolate 71 (GyrA: S91F, D95N, ParC: Wild type, mtrR: -35A Del, G45D, penA: Type XI NonMosaic, A501V, A517G, ponA: L421P, porB: porB1a)”, the MIC turned out to be 0.125 µg/mL with ceftriaxone; 16 µg/mL with spectinomycin; 0.06 µg/mL with cefixime; 1 µg/mL with penicillin G; 1 µg/mL with azithromycin.

Turning to “Neisseria gonorrhoeae isolate 240 (GyrA: Wild type, ParC: Wild type, mtrR: -35A Del, G45D, penA: Type I NonMosaic, ponA: Wild type, porB: G120D, A121D)”, the MIC is at most 0.015 µg/mL with ceftriaxone; 16 µg/mL with spectinomycin; at most 0.015 µg/mL with cefixime; 0.125 µg/mL with penicillin G; at most 0.03 µg/mL in the test with azithromycin.

Regarding “Neisseria gonorrhoeae isolate 51 (GyrA: Wild type, ParC: Wild type, mtrR: -35A Del, G45D, penA: Type II NonMosaic, A517G, ponA: L421P, porB: G120N, A121D)”, the MIC was at most 0.015 µg/mL with ceftriaxone; 16 µg/mL in the test with spectinomycin; at most 0.015 µg/mL in the test with cefixime; 0.5 µg/mL with penicillin G; 0.25 µg/mL with azithromycin.

Consider “Neisseria gonorrhoeae isolate 26 (GyrA: Wild type, ParC: Wild type, mtrR: -35A Del, G45D, penA: Type XXII NonMosaic, A517G, ponA: L421P, porB: G120D)”, for which the MIC with ceftriaxone is at most 0.015 µg/mL; with spectinomycin, 16 µg/mL; with cefixime, at most 0.015 µg/mL; with penicillin G, 1 µg/mL; with azithromycin it was 0.25 µg/mL.
